Experimental data published in PubChem BioAssay AID651820 (National Center for Advancing Translational Sciences (NCATS), 2012).
“And” between values parts separate entries of the source, which are not always exact repeats. Equal values may be shown once. The whole screen tested about 340,000 compounds, of which about 12,000 (3.5%) were called active. This list was built around the results that the source calls inconclusive (neither active nor inactive); the mix of calls is not that of the screen. Calls follow the shape of the dose curve; as a rule, active = well fitted inhibition curve with a large enough effect; inconclusive = small, poorly fitted or top-dose-only effect, or another doubt; inactive = no such curve, though single readings can be large or run the other way. Potencies beside an inconclusive call are fits to weak or partial responses and may not hold up. The source holds several records for some structures; these can differ, active in one and inactive in another.

Test: qHTS Assay for Inhibitors of Hepatitis C Virus (HCV)
Conditions: Huh7.5.1 HCVcc-Cre (HCVcc is cell-culture hepatitis C virus) infection, luciferase reporter, 44 h; activity change, negative = inhibition: at 41.8 µM (top of the series) unless noted
Summary of the method: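 Antiviral activity was scored by luciferase reporter output from cells infected with HCVcc-Cre (~0.5 moi) in presence of compound, 44 h infection period, cells seeded 1,000/well 4 h prior.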
% is scaled to controls: 0 for no effect and ±100 for the full control effect; potency is read from the fitted curve at half-maximal effect; tags tell the direction and shape of the fitted curve.

Row | Structure (SMILES) | activity change, negative = inhibition | Potency
1 | O=C(Cn1cc2c(n1)CCCCC2)Nc1c(F)c(F)cc(F)c1F | inactive: 5.27% | –
2 | ClC(Cl)(c1nnnn1-c1ccccc1)c1nnnn1-c1ccccc1 | – | inconclusive: 31.6 µM [inhibitor, single point]
3 | CCOc1ccc(-c2cc(CCCC(=O)N3CCN(c4ccc(OC)cc4)CC3)no2)cc1 | – | inconclusive: 11.2 µM [inhibitor, partial curve]
4 | CCOc1cccc2sc(NC(=O)CCS(=O)(=O)c3ccccc3)nc12 | – | active: 22.4 µM
5 | O=C(NCCn1c(-c2ccncc2)nc2ccccc21)[C@H]1CCCN1c1nc(CN2CCCCC2)cs1 | inactive: 14.3% | –
6 | CCN(CC)C(=O)C1CCCN(c2ncnc3c2cnn3-c2ccc(Cl)cc2)C1 (configuration not stated) | – | inconclusive: 4.47 µM [inhibitor, partial curve]
7 | Cc1c(C(=O)Nc2ccccc2)c2ccc(C(F)(F)F)cc2n1O | – | inconclusive: 14.1 µM [inhibitor, single point]
8 | Cc1ccc(N2C(=O)N3[C@H]4c5ccccc5OC[C@@H]4[C@@H](c4ccccc4)[C@@]3(C)C2=O)cc1 | – | inconclusive: 2.82 µM [inhibitor, full curve, poor fit]
9 | COc1ccc(N2CCN(C(=O)c3c(C)nn(-c4ccccc4)c3C)CC2)cc1 | inactive: -25.3% | –
10 | C[C@H]1C[C@@H]2[C@H]([C@@H](O)C[C@@]3(C)[C@H]2CC[C@]3(O)C(=O)CO)[C@@]2(C)C=CC(=O)C=C12 | inactive: -14.4% [at 8.37 µM] | active: 5.62 µM
11 | CC(C)(C)N=Cc1cc(-c2ccccc2)sc1O | – | active: 10 µM
12 | COc1ccc(Nc2ccc(S(=O)(=O)N3CCCCC3)cc2[N+](=O)[O-])cc1Cl | – | inconclusive: 31.6 µM [inhibitor, single point]
13 | COc1cccc(N(CC(=O)NC2CC3CCC2C3)S(=O)(=O)c2ccccc2)c1 (configuration not stated) | – | inconclusive: 11.2 µM [inhibitor, partial curve]
14 | Clc1cnc(Nc2cccnc2)c(Cl)c1 | – | inconclusive: 2.51 µM [inhibitor, full curve, poor fit]
15 | O=c1c2cnn(-c3ccccc3)c2nc(-c2cccs2)n1-c1ccc(Cl)cc1 | – | inconclusive: 5.62 µM [inhibitor, full curve]
16 | O=C(CCc1ccccc1)NCCSCc1c(F)cccc1Cl | inactive: 7.43% | –
17 | Nc1nc(-c2ccco2)c(-c2ccco2)s1 | – | inconclusive: 11.2 µM [inhibitor, partial curve]
18 | Cc1ccc(OCCc2csc(N)n2)cc1 | – | inconclusive: 12.6 µM [inhibitor, partial curve]
19 | CCOC(=O)c1c(NC(NC(C)=O)C(Cl)(Cl)Cl)sc(C(C)=O)c1C (configuration not stated) | – | inconclusive: 11.2 µM [inhibitor, partial curve]
20 | Cc1ccc(NCc2cccc(B(O)O)c2)cc1 | inactive: -61.4% | –
21 | Cc1ccc(N2CC(C(=O)N3CCC(C(=O)Nc4ccc(Br)cc4)CC3)CC2=O)cc1 (configuration not stated) | – | inconclusive: 12.6 µM [inhibitor, partial curve, poor fit]
22 | Cc1cccc(N(C)C(=O)c2cc(S(=O)(=O)N3CCc4ccccc43)cn2C)c1 | – | inconclusive: 31.6 µM [inhibitor, single point]

Row | Structure (SMILES) | activity change, negative = inhibition | Potency
23 | CCC(=O)Nc1cc(ON=C(C)C)cc([N+](=O)[O-])c1 | – | inconclusive: 6.31 µM [inhibitor, full curve, poor fit]
24 | COc1cccc(C(=O)Nc2ccncc2)c1OC | – | inconclusive: 10 µM [inhibitor, partial curve]
25 | CC(C)(C)n1nc2c(c1NC(=O)COc1ccc(Cl)cc1)CS(=O)(=O)C2 | inactive: -7.93% | –
26 | CC1(OC(=O)CCc2ccccc2)C(=O)C=C2C=C(c3ccc(C#N)cc3)N(CCc3c[nH]c4ccccc34)C=C2C1=O (configuration not stated) | – | inconclusive: 5.62 µM [inhibitor, single point]
27 | O=C(Cc1csc(-c2ccc(Cl)cc2)n1)Nc1cccc(S(=O)(=O)NC2=NCCC2)c1 | – | inconclusive: 22.4 µM [inhibitor, single point]
28 | Cc1cc(C)cc(NC(=O)N2CCN(C/C=C/c3ccccc3)CC2)c1 | inactive: -14.9% | –
29 | Cc1ccc(NC(=O)CN(C)C(=O)c2ccc(OCc3c(C)noc3C)cc2)cc1 | – | inconclusive: 7.94 µM [inhibitor, partial curve, poor fit]
30 | COc1ccc(CN2CCC(=O)N([C@H](CO)c3ccccc3)CC2)cc1 | inactive: -7.65% | –
31 | COc1ccc([C@@H]2[C@@H]3C(=O)N(C(C)(C)C)C(=O)[C@@H]3[C@]3(C)C(=O)N(c4cccc(Cl)c4)C(=O)N23)cc1 | inactive: 4.92% | –
32 | O=C(Nc1nc(-c2ccc(F)c(F)c2)cs1)c1ccc(OCC2CCCO2)cc1 (configuration not stated) | – | inconclusive: 2.82 µM [inhibitor, full curve]
33 | CC(=O)c1ccc(N2CCN(C(=S)Nc3ccccc3C(F)(F)F)CC2)cc1 | – | inconclusive: 31.6 µM [inhibitor, single point]
34 | COc1ccc(S(=O)(=O)N(c2onc(C)c2Cl)S(=O)(=O)c2ccc(OC)c(OC)c2)cc1OC | inactive: 22.8% | –
35 | Cc1ccc(-c2nc(CN3CCCC(C(=O)N4CCOCC4)C3)c(C)o2)cc1 (configuration not stated) | – | inconclusive: 14.1 µM [inhibitor, single point]
36 | CC1(C)Cc2c(sc3c2c(=N)n(Cc2ccco2)c(=O)n3CC(=O)Nc2ccc(Cl)cc2)CO1 | – | inactive and inconclusive: 31.6 µM [inhibitor, single point]
37 | O=[N+]([O-])c1ccc(Sc2nnnn2-c2ccccc2)nc1 | – | inconclusive: 31.6 µM [inhibitor, single point]
38 | C=C1CCN(C(C(=O)OC)C(C)C)S(=O)(=O)c2ccccc21 (configuration not stated) | – | inconclusive: 5.01 µM [inhibitor, single point]
39 | CCOC(=O)Nc1ccc2c(CN3CCN(S(=O)(=O)c4ccccc4F)CC3)cc(=O)oc2c1 | – | inconclusive: 7.94 µM [inhibitor, partial curve]
40 | COc1cc(Cl)cc(C(c2c(C(=O)O)[nH]c3ccccc23)c2c(C(=O)O)[nH]c3ccccc23)c1O | – | inconclusive: 31.6 µM [inhibitor, single point]
41 | CC(C)(C)C(=O)/C=C(\N)c1ccccn1 | inactive: -0.338% | –
42 | COc1ccccc1Oc1ccc(NC(=O)c2ccccc2C)cc1 | – | inconclusive: 31.6 µM [inhibitor, single point]
43 | O=[N+]([O-])c1ccc(O)c(/C=N/Nc2nn[nH]n2)c1 | inactive: 3.06% | –
44 | CCOC(=O)c1c(C)nc2c(C#N)cnn2c1C | inactive: -28.2% | –

Row | Structure (SMILES) | activity change, negative = inhibition | Potency
45 | Cc1cc(C)n(CCc2nc(-c3cc4ccccc4o3)cs2)n1 | – | inconclusive: 11.2 µM [inhibitor, single point]
46 | CCOc1ccc(C2C(C#N)=C(N)Oc3cc(O)ccc32)cc1OCC (configuration not stated) | – | inconclusive: 10 µM [inhibitor, single point]
47 | Cc1oc2c(c(C)cc3oc(=O)c(CC(=O)NCCCN4CCCC4=O)c(C)c32)c1C | – | inconclusive: 25.1 µM [inhibitor, partial curve]
48 | C/C(=N\NC(=O)COc1ccccc1-c1ccccc1)c1ccc(O)cc1O | – | active: 11.2 µM
49 | CC(C)(C)C(=O)Nc1cccc(-c2nc3ccccc3[nH]2)c1 | – | inconclusive: 31.6 µM [inhibitor, single point]
50 | COc1ccc(CCNC(=O)CN(Cc2ccc(Cl)cc2)S(C)(=O)=O)cc1OC | inactive: -4.9% | –
51 | COc1ccccc1CC(=O)N1CCN(c2cccc(C(F)(F)F)c2)CC1 | – | inconclusive: 12.6 µM [inhibitor, partial curve]
52 | CCOc1ccc(N2CC(C(=O)Nc3cccc(S(=O)(=O)N4CCCC4)c3)CC2=O)cc1 (configuration not stated) | – | active: 10 µM
53 | NC(N)=NCCCC(NC(=O)c1ccccc1)C(=O)Nc1ccc2ccccc2c1 (configuration not stated) | – | inconclusive: 2.51 µM [inhibitor, single point]
54 | Cc1nn(-c2ccccc2)c2nc3c(cc12)C(=O)CCC3 | – | inconclusive: 0.501 µM [inhibitor, full curve, poor fit]
55 | CC(C)C[C@H](NC(=O)Nc1ccc(Oc2ccccc2)cc1)C(=O)O | inactive: 21.1% | –
56 | COc1ccc(CNC(=O)C(C)OC(=O)c2cccc(N(C)C)c2)cc1 (configuration not stated) | – | inconclusive: 22.4 µM [inhibitor, single point]
57 | CN(C)c1nc(NCc2ccccc2)nc(SCC(=O)Nc2ccccc2)n1 | – | inconclusive: 3.16 µM [inhibitor, single point]
58 | CC(=O)n1cc([C@H]2C=C(C(=O)NCc3ccccc3)O[C@@H](OCc3ccc(CO)cc3)C2)c2ccccc21 | – | inconclusive: 11.2 µM [inhibitor, single point]
59 | COc1ccc(COn2nnc3ccc(S(=O)(=O)N4CCOCC4)cc32)cc1F | – | active: 10 µM
60 | Cc1nn(-c2ccccc2)c2c1C(c1ccco1)C(C#N)=C(N)O2 (configuration not stated) | inactive: 13.4% | –
61 | O=C(COC(=O)c1ccc(Br)o1)c1ccc(S(=O)(=O)N2CCCCC2)cc1 | – | inconclusive: 31.6 µM [inhibitor, single point]
62 | Cc1sc2ncnc(N3CCC(C(=O)N(C)CC(=O)Nc4ccc(Cl)c(C(F)(F)F)c4)CC3)c2c1C | – | active: 8.91 µM
63 | CCOC(=O)C(=Cc1ccc(-n2ccnc2)cc1)C(=O)OCC | – | inconclusive: 31.6 µM [inhibitor, single point]
64 | Cc1cc(S(=O)(=O)NC[C@H]2O[C@@H](n3cnc4c(N)ncnc43)[C@H](O)[C@@H]2O)c(C)s1 | – | inconclusive: 31.6 µM [inhibitor, single point]
65 | O=C(Nc1cc(Cl)ccc1-n1cncn1)c1cc(F)cc(F)c1 | inconclusive: -76% [inhibitor] | –
66 | CCOC(=O)N/N=C(\C)c1ccc(OC(F)F)cc1OC(F)F | – | inconclusive: 31.6 µM [inhibitor, single point]
